Experimental data reported in PubChem BioAssay (Tox21).
Several values for one entry are separate records, joined by “and”; a condition that tells them apart may be missing. Identical values can stand only once. Inconclusive means that the source gave no clear call. Such entries were picked first, then a sample of the others. For some assays here: Where the call is inconclusive, the potency comes from a doubtful curve fit. Activity calls are given as the source filed them. Unless noted, calls come from the whole dose curve; as a rule, active = well fitted curve in the direction sought with a large enough effect in the repeat runs; inconclusive = weak or mixed curves; inactive = no such curve, though single readings can be large; an effect the other way counts as inactive or inconclusive.

Key:
[1] = qHTS assay to identify small molecule agonists of the estrogen receptor beta (ER-beta) signaling pathway - cell viability counter screen (AID 1259380); note: nearly all actives have a fitted effect of over 30% in size; note: potency is the fitted concentration of half-maximal effect
Procedure, shortened: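 Measured: luminescence from CellTiter-Glo after 30 min at room temperature, added to wells already read for the LiveBLAzer FRET reporter (2 hr substrate); ER-beta-UAS-bla HEK293T cells had 16 hr compound treatment at 37C, 5% CO2.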

[2] = qHTS assay to identify small molecule antagonists of the estrogen receptor beta (ER-beta) signaling pathway - cell viability counter screen (AID 1259382); note: potency is the fitted concentration of half-maximal effect; nearly all actives have a fitted effect of over 55% in size
Procedure, shortened: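 Readout: luminescence, CellTiter-Glo, same wells as bla assay. System: ER-beta-UAS-bla GripTite HEK293T, 2% charcoal-stripped FBS. Exposure: compounds plus 1nM 17-beta-estradiol, 16 hr, 37C.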

[3] = qHTS assay to identify small molecule agonists of the estrogen receptor alpha (ER-alpha) signaling pathway in the presence of an antagonist - cell viability counter screen (AID 1259386);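 note: potency is the fitted concentration of half-maximal effect; cells exposed to compounds for 22 h at 37 °C before the viability read; nearly all actives have a fitted effect of over 30% in size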
Procedure, shortened: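 The test measures whether compounds kill ER-alpha reporter cells (VM7Luc4E2) under antagonist co-treatment (ICI-182,780, 10.0nM). Fluorescence from CellTiter-Fluor is read after a 22hr exposure.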

[4] = target: Progesterone receptor (Homo sapiens) (UniProt P06401); test: qHTS assay to identify small molecule agonists of the progesterone receptor (PR) signaling pathway (AID 1346784; calls by dose curve; note: nearly all actives have a fitted effect of over 30% in size; note: potency is the fitted concentration of half-maximal effect; for activation: % is set by controls: 0 for no effect and ±100 for the full control effect); conditions: PR-UAS-bla HEK293T, beta-lactamase FRET ratio, 16 h; activation: at 92.4 µM (top of the series) unless noted
Sequence of UniProt P06401 (P06401 whole entry, looked up): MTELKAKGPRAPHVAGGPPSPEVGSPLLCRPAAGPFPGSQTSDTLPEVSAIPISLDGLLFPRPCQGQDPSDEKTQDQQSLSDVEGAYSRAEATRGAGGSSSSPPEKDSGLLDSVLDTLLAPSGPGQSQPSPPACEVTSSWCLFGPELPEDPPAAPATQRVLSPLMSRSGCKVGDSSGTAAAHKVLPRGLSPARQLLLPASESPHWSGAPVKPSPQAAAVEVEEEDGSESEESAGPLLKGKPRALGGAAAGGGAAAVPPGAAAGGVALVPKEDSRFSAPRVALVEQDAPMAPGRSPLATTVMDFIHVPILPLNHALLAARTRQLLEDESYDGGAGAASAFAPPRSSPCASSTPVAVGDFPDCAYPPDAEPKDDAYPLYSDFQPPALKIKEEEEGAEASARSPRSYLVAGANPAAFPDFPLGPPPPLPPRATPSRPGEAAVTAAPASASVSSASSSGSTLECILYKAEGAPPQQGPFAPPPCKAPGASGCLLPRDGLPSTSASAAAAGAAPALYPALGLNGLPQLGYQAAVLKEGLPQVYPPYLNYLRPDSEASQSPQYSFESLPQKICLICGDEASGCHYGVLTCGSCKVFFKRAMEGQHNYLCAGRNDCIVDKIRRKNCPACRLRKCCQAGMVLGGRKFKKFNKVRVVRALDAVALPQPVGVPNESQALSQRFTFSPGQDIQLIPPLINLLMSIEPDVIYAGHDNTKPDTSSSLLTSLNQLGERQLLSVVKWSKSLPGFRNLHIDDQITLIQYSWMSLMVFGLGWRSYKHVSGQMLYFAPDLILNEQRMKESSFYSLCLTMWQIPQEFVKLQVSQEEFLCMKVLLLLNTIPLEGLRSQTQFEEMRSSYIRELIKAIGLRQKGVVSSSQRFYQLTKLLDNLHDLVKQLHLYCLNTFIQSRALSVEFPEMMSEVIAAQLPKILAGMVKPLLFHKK
Procedure, shortened: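 Agonist mode, quantitative HTS format in a HEK 293T line expressing a UAS-controlled beta-lactamase reporter; 16 hr compound exposure at 37C in 2% charcoal-stripped FBS, then LiveBLAzer B/G FRET fluorescence.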

[5] = target: Progesterone receptor (Homo sapiens) (UniProt P06401); test: qHTS assay to identify small molecule antagonists of the progesterone receptor (PR) signaling pathway (AID 1346795; active = well fitted inhibition curve with a large enough effect in the signal ratio in the repeat runs, not every such curve was filed as active; inconclusive = weak or mixed curves; the % refers to the signal ratio; note: potency is the fitted concentration of half-maximal effect); conditions: PR-UAS-bla HEK293T, beta-lactamase FRET ratio, 16 h; activity change, negative = inhibition: at 92.4 µM (top of the series) unless noted
Procedure, shortened: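 HEK293T PR-UAS-bla reporter cells in charcoal-stripped serum (2%) received compound after a 6 hr settling period, followed by R5020 agonist at 1 nM final; 16 hr incubation preceded the FRET substrate step and fluorescence measurement.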

[6] = qHTS assay to identify small molecule antagonists of the progesterone receptor (PR) signaling pathway - cell viability counter screen (AID 1346798); note: nearly all actives have a fitted effect of over 50% in size; note: potency is the fitted concentration of half-maximal effect
Procedure, shortened: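 Same-well multiplex: after 16 hr at 37C with compound and R5020 stimulation, HEK293T cells carrying a UAS-bla reporter received LiveBLAzer substrate (2 hr RT), then CellTiter-Glo (30 min RT) for luminescent viability.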

[7] = qHTS assay to identify small molecule agonists of the progesterone receptor (PR) signaling pathway - cell viability counter screen (AID 1346799; calls by dose curve; note: potency is the fitted concentration of half-maximal effect; nearly all actives have a fitted effect of over 45% in size)
Procedure, shortened: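 Counter screen for cytotoxicity: compound-treated PR-UAS-bla HEK293T cells (16 hr, 37C, 5% CO2) were assayed with CellTiter-Glo, luminescence measured after 30 min at room temperature.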

[8] = qHTS assay to identify small molecule antagonists of the TGF-beta/Smad signaling pathway - cell viability counter screen (AID 1346824); note: potency is the fitted concentration of half-maximal effect; nearly all actives have a fitted effect of over 50% in size
Procedure, shortened: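 SBE-bla HEK 293T cells, incubated overnight, then compound plus 0.25 ng/mL TGF-beta1 (stock added) for 5 hr at 37 C. Viability was read in the same wells by CellTiter-Glo luminescence after 30 min at room temperature.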

[9] = qHTS assay to identify small molecule agonists of the TGF-beta/Smad signaling pathway - cell viability counter screen (AID 1346829); note: potency is the fitted concentration of half-maximal effect; nearly all actives have a fitted effect of over 45% in size
Procedure, shortened: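 Compound-treated SBE-bla HEK 293T cells (5 hr, 37 C) were assessed for viability with CellTiter-Glo in parallel with the reporter read.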

[10] = qHTS assay to identify small molecule agonists of the TGF-beta/Smad signaling pathway (AID 1346859; active = well fitted activation curve with a large enough effect in the signal ratio in the repeat runs, not every such curve was filed as active; inconclusive = weak or mixed curves; the % refers to the signal ratio; note: potency is the fitted concentration of half-maximal effect); conditions: SBE-bla HEK293T, TGF-beta/Smad beta-lactamase reporter, 5 h; activation: at 76.8 µM (top of the series)
Procedure, shortened: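 Smad-responsive beta-lactamase reporter cells (HEK 293T) received compounds from DMSO stocks after overnight attachment, were incubated 5 hr, then treated 2 hr with FRET substrate before dual-emission fluorescence measurement (405 nm excitation).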

[11] = qHTS assay to identify small molecule antagonists of the TGF-beta/Smad signaling pathway (AID 1346924; active = well fitted inhibition curve with a large enough effect in the signal ratio in the repeat runs, not every such curve was filed as active; inconclusive = weak or mixed curves; the % refers to the signal ratio; note: potency is the fitted concentration of half-maximal effect); conditions: SBE-bla HEK293T, TGF-beta/Smad reporter, beta-lactamase ratio; activity, negative = inhibition: at 76.8 µM (top of the series) unless noted
Procedure, shortened: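 Read-out was FRET-substrate fluorescence (405 nm excitation; 460 and 530 nm emission) after 2 h at room temperature. Before that, cells carrying a Smad-binding-element beta-lactamase reporter in HEK 293T had been stimulated 5 h at 37 C with TGF-beta1 (0.25 ng/mL addition solution) in the presence of test compound.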

[12] = Caspase-3/7 induction in CHO-K1 cells by small molecules, qHTS cell viability counter screen (AID 1346979); note: potency is the fitted concentration of half-maximal effect; nearly all actives have a fitted effect of over 35% in size
Procedure, shortened: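 In the same wells as the caspase read, viability of compound-treated wild-type CHO-K1 cells was assessed using CellTiter-Fluor, added after 16hr at 37C and measured by fluorescence following 1hr further incubation.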

[13] = target: Thyrotropin receptor (Homo sapiens) (UniProt P16473); test: qHTS assay to identify small molecule antagonists of the thyroid stimulating hormone receptor (TSHR) signaling pathway (AID 1259385; calls by dose curve; note: % is set by controls: 0 for no effect and ±100 for the full control effect; nearly all actives have a fitted effect of over 20% in size); conditions: TSHR-HEK293 cAMP HTRF, TSH-stimulated antagonist mode; activity change, negative = inhibition: at 92.4 µM (top of the series) unless noted
Sequence of UniProt P16473 (P16473 whole entry, looked up): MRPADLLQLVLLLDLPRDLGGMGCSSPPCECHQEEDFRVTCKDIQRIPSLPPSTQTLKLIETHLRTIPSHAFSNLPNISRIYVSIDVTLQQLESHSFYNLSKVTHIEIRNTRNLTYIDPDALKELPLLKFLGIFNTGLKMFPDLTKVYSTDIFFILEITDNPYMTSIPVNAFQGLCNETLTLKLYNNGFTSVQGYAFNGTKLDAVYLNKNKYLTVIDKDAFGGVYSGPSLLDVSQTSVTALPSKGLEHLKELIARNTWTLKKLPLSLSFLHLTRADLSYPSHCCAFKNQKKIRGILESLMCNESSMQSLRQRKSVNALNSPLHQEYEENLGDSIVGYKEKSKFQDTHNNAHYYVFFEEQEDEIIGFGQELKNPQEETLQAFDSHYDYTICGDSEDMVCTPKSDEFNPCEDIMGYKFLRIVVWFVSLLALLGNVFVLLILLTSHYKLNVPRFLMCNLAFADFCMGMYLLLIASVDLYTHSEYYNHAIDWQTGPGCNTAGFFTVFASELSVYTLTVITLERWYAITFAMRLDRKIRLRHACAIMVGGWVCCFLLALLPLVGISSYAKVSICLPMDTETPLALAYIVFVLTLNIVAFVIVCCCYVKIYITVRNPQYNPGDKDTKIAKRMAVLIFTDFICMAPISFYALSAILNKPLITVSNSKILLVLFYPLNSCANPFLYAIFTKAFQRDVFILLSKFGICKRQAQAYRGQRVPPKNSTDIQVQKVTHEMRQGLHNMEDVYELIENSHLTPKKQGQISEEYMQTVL
Procedure, shortened: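 TSHR-HEK293 cells (800/well) plated 18 h, then compounds with Ro20-1724 and TSH at 1.5 ng/mL final, 30 min at room temperature. cAMP quantified by HTRF (cAMP-d2/anti-cAMP-cryptate, 1 h); 15 concentrations in triplicate.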

[14] = Human pregnane X receptor (PXR) small molecule agonists, qHTS cell viability counter screen (AID 1346977); note: potency is the fitted concentration of half-maximal effect; nearly all actives have a fitted effect of over 50% in size
Procedure, shortened: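 Measures live-cell protease fluorescence (CellTiter-Fluor) in PXR-Luc HepG2 cells treated 24hr with compounds at 37C. Cells had 5hr to attach before pin transfer of DMSO solutions.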

[15] = Caspase-3/7 induction in HepG2 cells by small molecules, qHTS assay (AID 1346978); note: potency is the fitted concentration of half-maximal effect; nearly all actives have a fitted effect of over 15% in size
Procedure, shortened: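 Wild-type HepG2 cells, 2,000/well, settled 5 hr at 37 C and 5% CO2, then compound-treated for 17 hr; caspase-3/7 activity read by luminescent Caspase-Glo 3/7 after 30 min at room temperature.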
Tags give direction and shape of the fitted curve or compound fluorescence and quenching.

For `CC(C)(C)OO`, the Potency [1] was “inactive”.

For `CCCCCCCCCCCCCCCCCCn1cc[n+](C)c1`, the Potency [1] was active: 30.5 µM, the Potency [2] was active: 30.5 µM and the Potency [3] was active: 60.8 µM. The Potency [4] was “inactive”, the Potency [5] was active: 54.2 µM and the Potency [6] was inconclusive: 68.2 µM [cytotoxic, single point]. For the same compound, the Potency [7] was active: 30.5 µM, the Potency [8] was active: 21.7 µM and the Potency [9] was active: 48.7 µM. For the same compound, the Potency [10] was inconclusive: 21.7 µM [rising, full curve], the Potency [11] was inconclusive: 21.7 µM [partial curve] and the Potency [12] was active: 4.3 µM.

With `O=P(Oc1ccccc1)(Oc1ccccc1)Oc1ccccc1` the Potency [1] was inconclusive: 17.1 µM [cytotoxic, partial curve] and active: 34.4 µM, the Potency [2] was inconclusive: 12.1 µM [cytotoxic, full curve] and the activity change, negative = inhibition [13] was inconclusive: 7.03%. For the same compound, the Potency [3] was inconclusive: 0.483 µM [cytotoxic, single point], the Potency [7] was inconclusive: 13.6 µM [cytotoxic, single point] and the Potency [9] was inconclusive: 61.6 µM [rising, single point]. For the same compound, the activity, negative = inhibition [11] was inconclusive: -4.25%, the Potency [14] was inconclusive: 54.2 µM [cytotoxic, partial curve] and the Potency [12] was inconclusive: 68.6 µM [cytotoxic].

For `N#Cc1c[nH]cc1-c1cccc2c1OC(F)(F)O2`, the Potency [1] was active: 21.7 µM, the Potency [2] was inconclusive: 61.1 µM [cytotoxic, partial curve, poor fit] and the Potency [3] was inconclusive: 10.9 µM [rising, partial curve, poor fit]. The Potency [4] was inconclusive: 30.6 µM [falling, partial curve], the Potency [5] was inconclusive: 3.86 µM [rising, full curve] and the Potency [6] was “inactive”. The Potency [7] was inconclusive: 27.3 µM, the Potency [9] was inconclusive: 61.6 µM [cytotoxic, single point] and the activity, negative = inhibition [11] was inconclusive: -18.6%. For the same compound, the Potency [14] was inconclusive: 61.1 µM [cytotoxic, partial curve] and the Potency [15] was active: 12.2 µM.

With `CC(c1ccc(O)cc1)(c1ccc(O)cc1)c1ccc(O)cc1` the Potency [1] was inconclusive: 48.6 µM [cytotoxic, partial curve, poor fit], the Potency [2] was inconclusive: 77 µM [cytotoxic, partial curve, poor fit] and the Potency [4] was inconclusive: 61.1 µM [cytotoxic, partial curve]. For the same compound, the Potency [5] was active: 19.3 µM, the Potency [6] was inconclusive: 21.7 µM [rising, partial curve] and the Potency [7] was inconclusive: 24.3 µM [rising, partial curve]. The Potency [14] was inconclusive: 68.6 µM [cytotoxic, single point].

In the case of `Cc1ccc(OP(=O)(Oc2ccc(C)cc2)Oc2ccc(C)cc2)cc1`, the Potency [1] is reported as active: 68.5 µM and inconclusive: 68.6 µM [cytotoxic, single point], the Potency [2] is reported as inconclusive: 61 µM [cytotoxic, partial curve, poor fit] and the Potency [7] is reported as inconclusive: 6.1 µM [rising, partial curve]. The Potency [9] was inconclusive: 24.5 µM [cytotoxic, partial curve, poor fit] and the Potency [14] was inconclusive: 14.1 µM [cytotoxic, partial curve].

With `Cc1cc(N=Nc2ccccc2C)ccc1N` the Potency [1] was inconclusive: 8.63 µM [cytotoxic, full curve], the Potency [2] was inconclusive: 48.6 µM [cytotoxic, partial curve] and the Potency [3] was active: 27.3 µM. The Potency [4] was inconclusive: 54.5 µM [cytotoxic, partial curve], the Potency [5] was inconclusive: 10.9 µM [full curve] and active: 12.2 µM and the activity, negative = inhibition [11] was inconclusive: -16.5% and inconclusive: -9.4%.

In the case of `O=P(OCC(Br)CBr)(OCC(Br)CBr)OCC(Br)CBr` (centres undefined), the Potency [1] is reported as inconclusive: 11 µM [cytotoxic, full curve] and inconclusive: 20.6 µM [cytotoxic, single point], the Potency [2] is reported as inconclusive: 16.3 µM [cytotoxic, partial curve] and the Potency [5] is reported as inconclusive: 5.52 µM [full curve] and active: 5.8 µM. The Potency [6] was inconclusive: 27.7 µM [rising, single point], the Potency [7] was inconclusive: 27.7 µM [rising, single point] and the activity, negative = inhibition [11] was inconclusive: -20% and inconclusive: -0.196%. For the same compound, the Potency [14] was inconclusive: 70.8 µM [cytotoxic, single point] and inconclusive: 58 µM [cytotoxic, single point] and the Potency [12] was active: 69.5 µM and inconclusive: 58 µM [cytotoxic, single point].
